Inconclusive results, whose numbers are uncertain, are shown with a selection of clear calls. Potencies of inconclusive entries are doubtful fits and often do not repeat. “Side channel” marks fits to a control or component signal instead of the main read-out. The source made the active and inactive calls. The call rests on the fitted dose curve; in most records, active means well fitted activation curve with a large enough effect in the signal ratio, with a control signal flat (not every such curve was filed as active); inconclusive means small, poorly fitted or top-dose-only effect, or effect the other way, or a change in a side signal; inactive means flat fitted curve, though single readings scatter; the % refers to the signal ratio.
Assay: qHTS Assay for Identification of Small Molecule Agonists for Hypoxia Response Element Signaling Pathway (AID 914); on activation: top concentration of the series differs between compounds; % of control where 0% means no effect
Details: ME-180 (cervical carcinoma) HRE-bla reporter, beta-lactamase ratio, CoCl2, 17 h; activation: hits give high values
Method in brief: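 A beta-lactamase reporter under hypoxia response element control in ME-180 cells served as the system. Compound titrations plus EC50 CoCl2 ran 17 h at 37 degrees Celsius; AC50 values were fitted from %Activity.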
Potency means the concentration at half of the fitted maximal effect; tags describe the fitted curve by direction and shape or compound fluorescence and quenching.

Compound | Potency | activation
CCOC(=O)c1[nH]c2ccc(OC)cc2c1NC(=O)CCN1CCN(Cc2ccccc2)CC1 | inconclusive: 2.51 µM [inhibitor, full curve, poor fit] | –
CCCc1cc(=O)oc2c(CN3CCN(C)CC3)c(O)c(Cl)cc12 | active: 5.01 µM | –
Cc1ccc(-n2ncc3c(NCCCOC(C)C)ncnc32)c(C)c1 | inconclusive: 2 µM [inhibitor, full curve, poor fit] | –
COc1cccc(Cn2c(=O)c(C)nc3cnc(Nc4ccccc4)nc32)c1 | inconclusive: 5.01 µM [activator, single point] | –
CCc1cc(=O)oc2c(CN3CCCC3)c(O)c(Cl)cc12 | active: 7.94 µM | –
CC(C)(C)c1ccc(O)c(CN(Cc2cc(C(C)(C)C)ccc2O)c2ccccc2)c1 | – | inactive: 12.3%
COc1ccc(Cc2ccccc2C(=O)O)c2ccccc12 | inconclusive: 3.16 µM [inhibitor, single point] | –
COc1cccc(Cn2c(NCC(C)C)nc3c2c(=O)n(C)c(=O)n3C)c1 | inconclusive: 0.1 µM [inhibitor, full curve, poor fit] | –
Cc1onc(-c2ccccc2Cl)c1C(=O)N1CCN(c2nc3ccccc3s2)CC1 | inconclusive: 2 µM [inhibitor, full curve] | –
O=S(=O)(c1ccccc1)N1CCC2(CCCN(Cc3nccs3)C2)CC1 | – | inconclusive: -11%
CC1(C)Cc2c(sc3c4nnnn4c4nnnn4c23)CO1 | inconclusive: 12.6 µM [inhibitor, single point] | –
Cc1ccc(OCC(=O)N(C)CCc2ccccn2)cc1 | inconclusive: 7.94 µM [activator, partial curve, poor fit] | –
c1ccc(/C(=N/Nc2nc3ccccc3s2)c2ccccn2)cc1 | inconclusive: 2 µM [inhibitor, partial curve] | –
CC(=O)C1=C(O)C(=O)N(c2cccc(C(=O)O)c2)C1c1ccc(F)cc1 (stereo not given) | inconclusive: 0.631 µM [inhibitor, full curve] | –
COc1ccccc1NC(=O)C1=C(C)NC(SCC(=O)c2ccc(C)cc2)=C(C#N)C1c1ccco1 (stereo not given) | inconclusive: 10 µM [cytotoxic, side channel, partial curve] | –
Cn1cc(Br)cc2nc(C(F)(F)F)nc1-2 | – | inactive: 2.94%
Cc1c(/C(O)=C2\C(=O)C(=O)N(CCCN(C)C)C2c2ccccc2)cnn1-c1ccccc1 (stereo not given) | – | inactive: 3.31%
CCN1CCN(c2nc3c(C)cccn3c(=O)c2/C=C(\C#N)S(=O)(=O)c2ccccc2)CC1 | – | inactive: 5.25%
COc1ccc(C2=CC(c3ccc(C)cc3)n3nnnc3N2)cc1 (stereo not given) | active: 10 µM | –
COc1ccc(C2Nc3ccccc3C(=O)N2Cc2ccco2)cc1CN1C(=O)c2ccccc2C1=O (stereo not given) | – | inconclusive: -22.8%

Compound | Potency | activation
O=C(NC1CCS(=O)(=O)C1)c1c(NC(=O)C2COc3ccccc3O2)sc2c1CCCC2 (stereo not given) | active: 5.01 µM | –
Cc1c(O)c(CN2CCCCC2)cc2c3c(c(=O)oc12)CCC3 | inconclusive: 10 µM [activator, partial curve] | –
N/C(=N\c1nc2ccccc2o1)NC(=O)c1ccccc1NC(=O)c1ccccc1 | – | inconclusive: -21.7%
O=C(O)[C@@H]1[C@@H](C(=O)O)[C@]23C[C@@]2(C(=O)O)[C@]2(C(=O)O)CCC3=C3CCCC312 | inconclusive: 0.251 µM [inhibitor, full curve, poor fit] | –
O=C(c1cccc(F)c1)N1CCC[C@@]2(CCN(c3ccccc3)C2)C1 | inconclusive: 3.98 µM [inhibitor, partial curve] | –
CCC1(C)Cc2c(sc3c2c(=O)n(C)c2nnc(SCc4ccccc4)n32)CO1 (stereo not given) | inconclusive: 0.251 µM [inhibitor, full curve] | –
Cc1nc(N2CCN(C(=O)c3ccc(Cl)cc3)CC2)c(C#N)c2c1COC(C)(C)C2 | inconclusive: 6.31 µM [inhibitor, partial curve] | –
CC(C)CNC(=O)c1c(N)n(/N=C/c2ccccn2)c2nc3ccccc3nc12 | – | inconclusive: -21.4%
c1ccc(N2CCN(c3nc(NCc4ccco4)c4ccccc4n3)CC2)cc1 | inconclusive: 12.6 µM [inhibitor, single point] | –
Cc1noc(C)c1C(=O)N1CCC2(CC1)CN(c1ccccn1)C2 | – | inconclusive: -8.31%
C[N+](C)(C)[C@@H](C1=CCCC1=O)c1ccccc1 | – | inactive: -1.62%
CCOC(=O)C1CCCN(c2nc3ccccc3nc2C(C#N)C(=O)OCCOC)C1 (stereo not given) | – | inconclusive: -0.465%
Cc1nnc2c(NC(C)C)nc3ccccc3n12 | active: 10 µM | –
N#CCSc1nc2c(cc1C#N)CCCCCC2 | inconclusive: 6.31 µM [inhibitor, partial curve] | –
N#Cc1nc(COc2ccc(Br)cc2)oc1N1CCN(Cc2ccccc2)CC1 | inconclusive: 10 µM [cytotoxic, side channel, partial curve] | –
Cn1c(=O)[nH]c(=O)c2c1nc(Br)n2CCSc1nnnn1-c1ccccc1 | inconclusive: 7.94 µM [inhibitor, partial curve] | –
CCOC(=O)CC(C#N)c1cn(C)c2ccccc12 (stereo not given) | – | inconclusive: -30%
CCN(CC)Cc1cc(C(C)=O)ccc1OCC(C)C | inconclusive: 10 µM [activator, partial curve] | –
C=CCOc1nc2c(c(=O)n(C)c(=O)n2C)n1Cc1c(Cl)cccc1Cl | inconclusive: 2.51 µM [inhibitor, full curve] | –
COc1cccc(-c2nc(NCCN3CCOCC3)c3ccccc3n2)c1O | inconclusive: 5.01 µM [inhibitor, partial curve] | –

Source: PubChem BioAssay (NCATS)
